{"sequences": {"note": "Sequences of proteins named here, by UniProt entry; tags and fusion partners are left off.", "UniProt P60881": "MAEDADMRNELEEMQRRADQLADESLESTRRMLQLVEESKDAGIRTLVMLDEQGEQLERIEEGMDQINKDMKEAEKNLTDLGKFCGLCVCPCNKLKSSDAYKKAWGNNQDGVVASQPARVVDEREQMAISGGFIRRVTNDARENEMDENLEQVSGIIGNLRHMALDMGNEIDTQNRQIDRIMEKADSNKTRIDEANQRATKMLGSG"}, "source": "paper PMC4571948", "about": "“Identification of a Novel Sequence Motif Recognized by the Ankyrin Repeat Domain of zDHHC17/13 S-Acyltransferases*” (The Journal of Biological Chemistry, 2015)", "key": {"[1]": {"molecular_target": "T1, GST-SNAP25b(111–120) (rat)", "T1 sequence": "GVVASQPARV", "experiment": "pull-down; Fig. 5A: 125 μg GST fusion protein on glutathione-Sepharose with HEK293T lysates of HA-tagged proteins (Tris buffer, 1% Triton X-100), overnight at 4 °C, washes with Tris buffer with 0.5% Triton X-100; HA blot; only the target purified"}, "[2]": {"molecular_target": "GST-SNAP25bFL (full-length GST-tagged SNAP25b) (rat) (UniProt P60881)", "experiment": "pull-down; Fig. 5A: 125 μg GST fusion protein on glutathione-Sepharose with HEK293T lysates of HA-tagged proteins (Tris buffer, 1% Triton X-100), overnight at 4 °C, washes with Tris buffer with 0.5% Triton X-100; HA blot; only the target purified"}, "[3]": {"molecular_target": "T1, GST-SNAP25b(111–120) (rat)", "experiment": "pull-down; Fig. 5B: 125 μg GST fusion protein on glutathione-Sepharose with HEK293T lysates of HA- or FLAG-tagged proteins (Tris buffer, 0.5% Triton X-100), overnight at 4 °C, washes with Tris buffer; HA or FLAG blot; only the target purified"}, "GST-IRAP(78–109)": {"molecular_target": "T2, GST-IRAP(78–109) (UniProt P97629)", "T2 sequence": "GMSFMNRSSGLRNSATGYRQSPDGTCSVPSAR", "experiment": "pull-down; Fig. 5B: 125 μg GST fusion protein on glutathione-Sepharose with HEK293T lysates of HA- or FLAG-tagged proteins (Tris buffer, 0.5% Triton X-100), overnight at 4 °C, washes with Tris buffer; HA or FLAG blot; only the target purified"}}, "note": "These are yes or no findings as the source states them, for the method shown. Binding seen in cells or lysates may run through a third protein. Some results given as binding are weak or reduced against the parent protein; the word gives no strength. Sequences can lack the tags named with a protein.", "data": [{"binder": "HA-zD13(290X) (HA-tagged AR-containing fragment of zDHHC13) (domain or fragment, UniProt Q9CWU2 1-289) MEGPGLGSQCRNHSHGSHVPGFGRHGICVHENKELAKAKEILPLIEDSSNCDIVKATQYGIFERCKELVEAGYDVRQPDRENVSLLHWAAINNRLELVKFYISKGAVIDQLGGDLNSTPLHWAIRQGHLPMVILLLQHGADPTLIDGEGFSSIHLAVLFQHMPIIAYLISKGQSVNMTDVNGQTPLMLSAYKVIGPEPTGFLLKFNPSLSVVDKTHQNTPLHWAVAAGNVSAVDKLLEAGSSLDIRNAKGETPLDMALQSKNQLISHMLRTEAKMRANKQFRLWRWLHK", "values": [{"measurement": "binding", "setting": "[1]", "value": "binds"}, {"measurement": "binding", "setting": "[2]", "value": "binds"}, {"measurement": "binding", "setting": "[3]", "value": "binds"}]}, {"binder": "FLAG-TANK2 (TAnkyrase-2) (enzyme, UniProt Q9H2K2 1-1166) MSGRRCAGGGAACASAAAEAVEPAARELFEACRNGDVERVKRLVTPEKVNSRDTAGRKSTPLHFAAGFGRKDVVEYLLQNGANVQARDDGGLIPLHNACSFGHAEVVNLLLRHGADPNARDNWNYTPLHEAAIKGKIDVCIVLLQHGAEPTIRNTDGRTALDLADPSAKAVLTGEYKKDELLESARSGNEEKMMALLTPLNVNCHASDGRKSTPLHLAAGYNRVKIVQLLLQHGADVHAKDKGDLVPLHNACSYGHYEVTELLVKHGACVNAMDLWQFTPLHEAASKNRVEVCSLLLSYGADPTLLNCHNKSAIDLAPTPQLKERLAYEFKGHSLLQAAREADVTRIKKHLSLEMVNFKHPQTHETALHCAAASPYPKRKQICELLLRKGANINEKTKEFLTPLHVASEKAHNDVVEVVVKHEAKVNALDNLGQTSLHRAAYCGHLQTCRLLLSYGCDPNIISLQGFTALQMGNENVQQLLQEGISLGNSEADRQLLEAAKAGDVETVKKLCTVQSVNCRDIEGRQSTPLHFAAGYNRVSVVEYLLQHGADVHAKDKGGLVPLHNACSYGHYEVAELLVKHGAVVNVADLWKFTPLHEAAAKGKYEICKLLLQHGADPTKKNRDGNTPLDLVKDGDTDIQDLLRGDAALLDAAKKGCLARVKKLSSPDNVNCRDTQGRHSTPLHLAAGYNNLEVAEYLLQHGADVNAQDKGGLIPLHNAASYGHVDVAALLIKYNACVNATDKWAFTPLHEAAQKGRTQLCALLLAHGADPTLKNQEGQTPLDLVSADDVSALLTAAMPPSALPSCYKPQVLNGVRSPGATADALSSGPSSPSSLSAASSLDNLSGSFSELSSVVSSSGTEGASSLEKKEVPGVDFSITQFVRNLGLEHLMDIFEREQITLDVLVEMGHKELKEIGINAYGHRHKLIKGVERLISGQQGLNPYLTLNTSGSGTILIDLSPDDKEFQSVEEEMQSTVREHRDGGHAGGIFNRYNILKIQKVCNKKLWERYTHRRKEVSEENHNHANERMLFHGSPFVNAIIHKGFDERHAYIGGMFGAGIYFAENSSKSNQYVYGIGGGTGCPVHKDRSCYICHRQLLFCRVTLGKSFLQFSAMKMAHSPPGHHSVTGRPSVNGLALAEYVIYRGEQAYPEYLITYQIMRPEGMVDG", "values": [{"measurement": "binding", "setting": "[3]", "value": "no binding"}, {"measurement": "binding", "setting": "GST-IRAP(78–109)", "value": "binds"}]}]}
